Experimental data taken from the supplement of paper PMC11417369.
± gives the standard deviation of the averaged measurements. Some of the results follow.

system: PfAP2-LT AP2 domain (GST-tagged); experiment: gcPBM binding intensity (ln(normalized median fluorescence intensity)); higher = stronger DNA binding
Procedure, shortened: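 In this array assay, P. falciparum DNA-binding domains with a GST tag, expressed in E. coli, were applied for 1 h to primer-extended double-stranded 36-bp intergenic genomic probes and negative controls on an Agilent 4 × 180k array. Bound protein was visualised with Alexa488 anti-GST antibody at 488 nm. Binding intensity is the highest Masliner-normalised natural-log median intensity across replicate spots of either probe orientation.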

Sequence	gcPBM binding intensity (ln)
AAAAAAAAAAAAAACACACACACACGCATACACATA [CACACA_site7364]	10.2
TATATATATAATATATGTACTCATATTAAGAGATAC [XGTACX_site1354]	8.61 ± 0.41
AATGAGCTTTTTAAAAGTACTAAATATAAATAAATA [XGTACX_site3632]	8.51 ± 0.52
TATATATGTATATTTTGTACGTATTTATTTACATGA [XGTACX_site4584]	8.76 ± 0.46
TATATTTATACTTATACACACATTATTGAATTAACC [CACACA_site934]	8.88 ± 0.41
ATTATTTATATTTGGAGTACTTATAATATTTTTATA [XGTACX_site1289]	8.66 ± 0.38
AAAAAATATGCATATACACACATATGTATAAATAAC [CACACA_site7090]	9.28 ± 0.33
CTTTATATATTTTATTGTACTTAAAAAAAAAAAAAA [XGTACX_site2134]	7.92 ± 0.39
AAAATATTTATTCCTAGTACTTACCATTATATATAT [XGTACX_site363]	8.8 ± 0.49
AAAAAAAAATGAAAAGAAAAAAAAAGAAAAAAGGGA [CACACA_negctrl_site287]	8.69 ± 0.58
AGTGTAAGCTAAGTGGTGCGTTGAATAAGGTTTTTT [GTGCAC_site9951]	8.91 ± 0.52
TATAGGTATTTGTATACACACAAATGTATATATCTA [CACACA_site6713]	8.9 ± 0.37
TGTATAGTCTAAAGTTGTACAAAAAAAAAAAAAAAA [XGTACX_site5764]	8.56 ± 0.51
TCTTTGGTATTTACATGTACATATTCTTAAAAACAT [XGTACX_site3124]	8.88 ± 0.47
GAAAATAAAATATTAGTGCATTATTTGATCAATAAT	8.63 ± 0.42
AATAGTTGCTAAAGGTGTACAATACATTTATTAGAA [XGTACX_site2773]	8.82 ± 0.53
TATTACTTAAATAAAAGTACATATAACATTTTAGTT [XGTACX_site196]	8.46 ± 0.38
ATGTCATAAAAACATATACACACTTGAAATATAAAA [CACACA_site2329]	8.96 ± 0.4
CATTCCTATTATTATACACACAAATTAAGAATTCAA [CACACA_site787]	8.74 ± 0.29
TATAATATATTCATGTGTACATATATTTCGAACATA [XGTACX_site1754]	8.81 ± 0.36

Sequence	gcPBM binding intensity (ln)
ATAAATATTGCGTGCACACACATAATATTTATATAT [CACACA_site7136]	9.29 ± 0.36
CGAAAAATATGTATGAGTACTTATATTTAAACTATA [XGTACX_site1911]	8.55 ± 0.41
AAAAAAAAAAAAAAAACACACAAACGCTTTTTTTTT [CACACA_site4545]	8.93 ± 0.39
GGATAAGAGGCATATACACACAATTTAAAAAAATAA [CACACA_site4657]	9.04 ± 0.52
ATTTTTTTGTTAATTTGTACATAAAATTTTATTTTA [XGTACX_site7007]	8.6 ± 0.42
ATATTTATTTTATAAAGTACTAAAAAATATATTATA [XGTACX_site8522]	8.28 ± 0.32
TTGTTTTATACATAGTGTACATATAAAAATTTTTTT [XGTACX_site7549]	8.6 ± 0.45
ATATATATTATAATCTGTACATAAATATATAATAAA [XGTACX_site5425]	8.68 ± 0.38
TCTTAAATTATGATAAAATATAATAAATAAATAAAT [CACACA_negctrl_site1520]	8.38 ± 0.49
ATTTTCCCTAGAATATGTACACATAGTAAATATTAT [XGTACX_site7499]	8.71 ± 0.39
CAGATAAATAAACACACACACACATATATATATATA [CACACA_site9311]	10.16 ± 0.078
ATATATAAATATGAAACACACATTCTATTTAATTCG [CACACA_site1450]	8.76 ± 0.42
AAATAAAGAAATGCAAGTACATACTAAACTAATCCA [XGTACX_site1209]	9 ± 0.33
AAAAAAAAAAAAGAAAAATATATATATAAATAAATA [GTGCAC_negctrl_site569]	8.37 ± 0.61
ATATGTACAAATTATACACACATGTACAATTATATA [CACACA_site1253]	9.15 ± 0.34
ATGTCACAATTTTTCACACACAAAATTTATATACAT [CACACA_site2030]	9.22 ± 0.39
TATGTTTCTATATATACATGCAAGAAGAAATGTACT [TGCATGCA_site891]	8.63 ± 0.34
GAATATTAATTCAAGTGTACAAATATATATATAATT [XGTACX_site5103]	8.82 ± 0.46
CAAAAGGATAGGCACACACACACACCGATATATATA [CACACA_site8685]	10.1 ± 0.21
AATTTAAAAAATAATTGTACAAAAAAAAAAAATCAG [XGTACX_site4576]	8.65 ± 0.56

Sequence	gcPBM binding intensity (ln)
GTTAATATTTTTGGGGGTACTTAAAAAAAAAAAAAA [XGTACX_site1477]	8.525 ± 0.021
TTACATACAATTGGTGTGCACATATATATATATATA	9.65 ± 0.31
TATGTTTTTGAATGAGTGCATTAAAATAAAACATTT	8.47 ± 0.37
TTCTTGTATATTCATAGTACATATAATGTCGTGTTA [XGTACX_site8991]	8.94 ± 0.52
TAATAAGGAATTTATAGTACATATTCATATGTTTTA [XGTACX_site2331]	8.5 ± 0.45
ATAATATAAATATACACACACACATATATATATATA [CACACA_site2905]	9.98 ± 0.2
ATAAAAATTTATATATGTACTTAATTTTTAATTTTT [XGTACX_site7482]	8.4 ± 0.52
TTATATTATATATATGTGCACATTTTTAAACTTGGA	8.77 ± 0.47
ACAAATAAAAATATTACACACACTATTATATTGATA [CACACA_site1494]	9.17 ± 0.33
GGAAGATGAAAAATAAAGCATGTGCTGTACAAACGA [CACACA_negctrl_site1625]	9.04 ± 0.45
AAATATTTATATGTTACACACTGTTGATAATTTTCT [CACACA_site1347]	8.87 ± 0.42
TTCAAATTGTTTATATGTACTTATAAAAATTGTCTG [XGTACX_site977]	8.52 ± 0.43
ATTAAAAAAAAAAAAAGTACTTATAATTATACTCGT [XGTACX_site4852]	8.51 ± 0.49
AGACCTTTAATTTGTGTGCACATAATTAGTGTACAT [GTGCAC_site9434]	9.77 ± 0.31
ATTTTTGTAATTATTTGTACACATTTATTTATGTGT [XGTACX_site1864]	9.46 ± 0.39
AAAAATATTTTGGTTTGTACATATATTTTTACAATA [XGTACX_site8691]	8.61 ± 0.34
ACTTATTTCGATATGTGTACTTAATATATATATTTA [XGTACX_site6616]	8.87 ± 0.4
TGACCGTTTTAAGAGTGTACAAAAAAAAAAAAAAAA [XGTACX_site4141]	8.44 ± 0.47
